Assay results: the supplement of paper PMC5790926

Legend:
[1] = tested on: H5-S-FLU in MDCK-SIAT1 cells; test: IC50 inhibition of H5-S-FLU (H5 HA pseudotyped influenza) infection
Method: (§1)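 MDCK-SIAT1 cells were pretreated for 3 h with two-fold drug dilutions, then exposed overnight to a single-cycle eGFP reporter particle coated with the named glycoprotein; eGFP read on fixed cells. Mostly one titration per compound; only inhibitors are listed.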

[2] = tested on: E-S-FLU (Zaire C15 EBOV-GP pseudotyped S-FLU) in MDCK-SIAT1 cells; test: IC50 inhibition of E-S-FLU (EBOV-GP pseudotyped influenza) infection
Method: as §1

| Compound | IC50 inhibition of H5-S-FLU [1] | IC50 inhibition of E-S-FLU [2] |
| --- | --- | --- |
| CCN(CC)CCO[C@H]1CC[C@@]2(C)C(=CC[C@@H]3[C@@H]2CC[C@]2(C)C(=O)CC[C@@H]32)C1 | 49.5 µM | 2.56 µM |
| NC[C@@H]1O[C@H](C23CC4CC(CC(C4)C2)C3)Cc2c1ccc(O)c2O | 15.6 µM | 8.6 µM |
| O=C1NCCc2[nH]c(-c3ccncc3)cc21 | 15.7 µM | 21.3 µM |
| Nc1nc(N)c2nc(CNc3ccc(C(=O)N[C@@H](CCC(=O)O)C(=O)O)cc3)cnc2n1 [Aminopterin] | 0.2 µM | 0.2 µM |
| COc1cc(NS(C)(=O)=O)ccc1Nc1c2ccccc2nc2ccccc12 [Amsacrine hydrochloride] | 6.76 µM | 7.68 µM |
| Cc1c(-c2ccc(-c3ccccc3F)cc2)nc2ccc(F)cc2c1C(=O)O [Brequinar sodium salt hydrate] | 1.4 µM | 1.3 µM |
| Clc1ccc(C(c2ccc(Cl)cc2)[n+]2ccn(CC(OCc3ccc(Cl)cc3Cl)c3ccc(Cl)cc3Cl)c2)cc1 (stereo not given) [Calmidazolium chloride] | 3.9 µM | 2.3 µM |
| CCN(CC)CCCC(C)Nc1ccnc2cc(Cl)ccc12 (stereo not given) [Chloroquine diphosphate] | 67 µM | 5.44 µM |
| CN1CCC[C@@H]1CCO[C@](C)(c1ccccc1)c1ccc(Cl)cc1 [Clemastine fumarate salt] | 58.4 µM | 3.4 µM |
| CN1CCC[C@@H]1CCO[C@](C)(c1ccccc1)c1ccc(Cl)cc1 [Clemastine] | 50 µM | 4.3 µM |
| Cc1cc(N)c2ccccc2[n+]1CCCCCCCCCC[n+]1c(C)cc(N)c2ccccc21 [Dequalinium chloride hydrate] | 12.1 µM | 27.3 µM |
| CCCNCC(O)COc1ccccc1C(=O)CCc1ccccc1 (stereo not given) [Propafenone HCl] |  | 18.4 µM |
| CCC(=O)c1ccc2c(c1)N(CCCN(C)C)c1ccccc1S2 [Propionyl promazine HCl] |  | 15.3 µM |
| C=Cc1c(C)c2cc3[nH]c(cc4nc(cc5nc(cc1[nH]2)C(C)=C5CCC(=O)O)C(CCC(=O)O)=C4C)c(C)c3C=C [Protoporphyrin IX] |  | 42 µM |
| CNCCCC1c2ccccc2C=Cc2ccccc21 [Protriptyline HCl] |  | 13.8 µM |
| CCN(CC)CCCC(C)Nc1c2ccc(Cl)cc2nc2ccc(OC)cc12 (stereo not given) [Quinacrine dihydrochloride] |  | 2.91 µM |
| C=C[C@H]1CN2CC[C@H]1C[C@@H]2[C@@H](O)c1ccnc2ccc(OC)cc12 [Quinidine sulfate] |  | 81.3 µM |
| O=[N+]([O-])c1ccc2nc(N3CCNCC3)ccc2c1 [Quipazine, 6-nitro, maleate] |  | 29.2 µM |
| C=CCN1CCc2c(cc(O)c(O)c2Br)[C@@H](c2ccccc2)C1 [R(+)-6-Bromo-APB hydrobromide] |  | 90.4 µM |
| CCCN1CCc2cccc3c2[C@H]1Cc1ccc(O)c(O)c1-3 [R(-)-Propyl norapomorphine hydrochloride] |  | 25.6 µM |
| Nc1c(S(=O)(=O)O)cc(Nc2ccc(Nc3nc(Cl)nc(Nc4cccc(S(=O)(=O)O)c4)n3)c(S(=O)(=O)O)c2)c2c1C(=O)c1ccccc1C2=O [Reactive Blue 2] |  | 65.8 µM |
| NC(=O)c1ncn([C@@H]2O[C@H](CO)[C@@H](O)[C@H]2O)n1 [Ribavirin] | 126 µM |  |
| Cc1nc2sccn2c(=O)c1CCN1CCC(=C(c2ccc(F)cc2)c2ccc(F)cc2)CC1 [Ritanserin] |  | 16.2 µM |
| C[C@@H](CN1CCC(Cc2ccccc2)CC1)[C@@H](O)c1ccc(O)cc1 [Ro 25-6981 HCl] |  | 111 µM |
| CC(=O)c1c(O)c(C)c(O)c(Cc2c(O)c3c(c(C(=O)/C=C/c4ccccc4)c2O)OC(C)(C)C=C3)c1O [Rottlerin] |  | 6.25 µM |

| Compound | IC50 inhibition of H5-S-FLU [1] | IC50 inhibition of E-S-FLU [2] |
| --- | --- | --- |
| N.N.N.N.N.N.N.N.N.N.N.N.N.N.O.O.[Cl-].[Cl-].[Cl-].[Cl-].[Cl-].[Cl-].[Ru+4].[Ru+5].[Ru+5] [Ruthenium red] |  | 141 µM |
| CCCC(C(=O)OCCN(CC)CC)(c1ccccc1)c1ccccc1 [SKF525A HCl] |  | 3.6 µM |
| C=CCN1C[C@H](C)N([C@H](c2ccc(C(=O)N(CC)CC)cc2)c2cccc(OC)c2)C[C@H]1C [SNC80] |  | 53.2 µM |
| O=C(CCCN1CCC2(CC1)C(=O)NCN2c1ccccc1)c1ccc(F)cc1 [Spiperone] |  | 52.4 µM |
| CCN(CC)CCNC(=O)c1c(C)[nH]c(/C=C2\C(=O)Nc3ccc(F)cc32)c1C [Sunitinib malate] |  | 9.7 µM |
| CC/C(=C(\c1ccccc1)c1ccc(OCCN(C)C)cc1)c1ccccc1 [Tamoxifen citrate] |  | 0.2 µM |
| CC/C(=C(\c1ccccc1)c1ccc(OCCN(C)C)cc1)c1ccccc1 [Tamoxifen] |  | 1.8 µM |
| CC(C)(C)c1ccc(C(O)CCCN2CCC(C(O)(c3ccccc3)c3ccccc3)CC2)cc1 (stereo not given) [Terfenadine] |  | 3.37 µM |
| CCCCNc1ccc(C(=O)OCCN(C)C)cc1 [Tetracaine hydrochloride] |  | 124 µM |
| COc1ccc2cc1Oc1ccc(cc1)C[C@H]1c3cc(c(OC)cc3CCN1C)Oc1c(OC)c(OC)cc3c1[C@H](C2)N(C)CC3 [Tetrandrine] |  | 1.63 µM |
| CSc1ccc2c(c1)N(CCC1CCCCN1C)c1ccccc1S2 (stereo not given) [Thioridazine hydrochloride] |  | 6 µM |
| CNCC[C@@H](Oc1ccccc1C)c1ccccc1 [Tomoxetine] |  | 29.4 µM |
| CN(C)CCOc1ccc(/C(=C(/CCCl)c2ccccc2)c2ccccc2)cc1 [Toremifene] |  | 0.151 µM |
| CN1CCN(CCCN2c3ccccc3Sc3ccc(C(F)(F)F)cc32)CC1 [Trifluoperazine dihydrochloride] |  | 4.4 µM |
| O=C(CCCN1CCC(O)(c2cccc(C(F)(F)F)c2)CC1)c1ccc(F)cc1 [Trifluperidol hydrochloride] |  | 48.9 µM |
| OC(CCN1CCCCC1)(c1ccccc1)C1CCCCC1 (stereo not given) [Trihexyphenidyl hydrochloride] |  | 37.3 µM |
| CC(CN(C)C)CN1c2ccccc2CCc2ccccc21 (stereo not given) [Trimipramine maleate] |  | 10.1 µM |
| CCN(CC)CCOc1ccc(C(O)(Cc2ccc(Cl)cc2)c2ccc(C)cc2)cc1 (stereo not given) [Triparanol] |  | 1.13 µM |
| Cc1ccc(/C(=C\CN2CCCC2)c2ccccn2)cc1 [Triprolidine hydrochloride] |  | 124 µM |
| N#C/C(=C\c1ccc(O)c(O)c1)C(N)=S [Tyrphostin 47] |  | 77.8 µM |
| CC[C@]1(O)C[C@@H]2CN(CCc3c([nH]c4ccccc34)[C@@](C(=O)OC)(c3cc4c(cc3OC)N(C)[C@H]3[C@@](O)(C(=O)OC)[C@H](OC(C)=O)[C@]5(CC)C=CCN6CC[C@]43[C@@H]65)C2)C1 [Vinblastine sulfate salt] |  | 22 µM |
| COC[C@H]1OC(=O)c2coc3c2[C@@]1(C)C1=C(C3=O)C2CCC(=O)[C@@]2(C)C[C@H]1OC(C)=O (stereo not given in full) [Wortmannin from Penicillium funiculosum] |  | 64.7 µM |
| Cc1cc(C(C)(C)C)cc(C)c1CC1=NCCN1 [Xylometazoline hydrochloride] |  | 54.2 µM |
| OCCN1CCN(CC/C=C2/c3ccccc3Sc3ccc(C(F)(F)F)cc32)CC1 [cis(Z)-Flupenthixol dihydrochloride] |  | 7.8 µM |

Where a name gives a salt, the structure may show the parent alone. Inhibition of entry of single-cycle reporter particles into MDCK-SIAT1 cells, 3 h drug pretreatment, overnight read-out. IC50, lower = stronger. No active / inactive call; only inhibitors are listed. Mostly one titration per compound.
